# Assay results as given in PubChem BioAssay AID686978 (National Center for Advancing Translational Sciences (NCATS), 2013).
# Among all 420,000 compounds or so, about 64,000 (15%) were called active. Inconclusive means that the source gave no clear call. Such entries were picked first, then a sample of the others. Calls follow the shape of the dose curve; as a rule, active = well fitted inhibition curve with a large enough effect; inconclusive = small, poorly fitted or top-dose-only effect; inactive = flat fitted curve, though single readings scatter. Potencies of inconclusive entries are left out as doubtful fits.
# Test: qHTS for Inhibitors of human tyrosyl-DNA phosphodiesterase 1 (TDP1): qHTS in cells in absence of CPT; also: nearly all actives have a fitted effect of over 55% in size
# Conditions: DT40 Tdp1-/- hTDP1 cells, no CPT, ATP luminescence, 48 h; activity change, negative = growth inhibition: at 46.2 µM (top of the series) unless noted
# Outline: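 Compound effects on proliferation are scored in DT40 Tdp1-/-;hTDP1 cells in the absence of CPT. ATP levels (CellTiter-Glo luminescence) are recorded after a ≥48 hr, 37 °C incubation.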
# % is scaled to controls: 0 for no effect and ±100 for the full control effect; potency is read from the fitted curve at half-maximal effect; tags tell the direction and shape of the fitted curve.
Compound,"activity change, negative = growth inhibition",Potency
Cc1coc2cc3oc(=O)c(CCC(=O)NCCCN4CCCC4=O)c(C)c3cc12,inconclusive: -30.3% [inhibitor],–
COc1ccc(CNc2ccc([N+](=O)[O-])cn2)cc1,–,"inconclusive [inhibitor, single point]"
CCCCc1c(-c2ccc(Br)cc2)ncn1CCc1ccccc1OC,–,active: 1.3 µM
CCOc1ccc(NC(=O)CSc2nccn2-c2cccc(C)c2C)cc1,–,active: 18.4 µM
CCC(=O)N1CCc2cc(S(=O)(=O)NC(Cc3ccccc3)C(=O)NC3CCCCC3C)ccc21 (configuration not stated),–,"inconclusive [inhibitor, single point]"
Cc1c(Cc2ccccc2)c(=O)oc2cc(OCC(N)=O)ccc12,–,inactive
COC(=O)c1c(SCc2cccc3ccccc23)nc(=O)[nH]c1C,–,"inconclusive [inhibitor, single point]"
Nn1c(COc2ccccc2F)nnc1SCC(=O)NC1CCCCC1,–,inactive
Cc1ncc2c(c1CNC(=O)c1cncs1)CCN(C(=O)c1ccc(C(C)(C)C)cc1)C2,–,"inconclusive [inhibitor, partial curve]"
CCC1CCCCN1Cc1nc2c(c(=O)n(C)c(=O)n2C)n1CCC(C)C (configuration not stated),–,active: 14.6 µM
COc1ccccc1N1CCN(S(=O)(=O)CCNC(=O)C2CCCC2)CC1,–,"inconclusive [inhibitor, single point]"
CSc1nsc(N/N=C/c2ccccc2)c1C#N,–,"inconclusive [inhibitor, single point]"
c1ccc2nc3ccccc3nc2c1,–,inactive
Cc1ccc(-c2csc(N(CCO)CCCn3c(C(F)(F)F)nc4ccccc43)n2)cc1,–,"inconclusive [inhibitor, single point]"
CC(=O)c1ccc(NC(=O)c2noc(C)c2[N+](=O)[O-])cc1,–,"inconclusive [inhibitor, single point]"
CCOc1cc2[nH]c(=O)n(Cc3ccc(C(=O)NCCOC)cc3)c(=O)c2cc1OCC,–,inactive
COc1ccc(C(=O)Nc2cccc(C(C)=O)c2)c(OC)c1OC,–,"inconclusive [inhibitor, partial curve]"
COc1ccccc1CNC(=O)CN1NS(=O)(=O)c2ccccc2C1=O,inconclusive: -30.4% [inhibitor],–
CC1(C)CC(=O)C2=C(C1)N=C1SCCC(=O)N1C2c1ccccc1 (configuration not stated),inconclusive: -32.7% [inhibitor],–
CC(C)(C)c1nnc2sc(SCC(=O)N3CCCCC3)nn2c1=O,–,"inconclusive [inhibitor, single point]"
COCCn1nnnc1C(c1ccccn1)N1CCN(c2cccc(C)c2C)CC1 (configuration not stated),inconclusive: -33.3% [inhibitor],–
COc1ccc(C(=O)CSc2nnn(-c3cccc(NC(C)=O)c3)n2)cc1,–,active: 23.1 µM
Cc1nn(CC(=O)N(C)C2(C#N)CCCCC2)c(C)c1[N+](=O)[O-],–,inactive
Cc1ccc(S(=O)(=O)N(C)C)cc1NC(=O)COC(=O)CSc1ccccc1,–,inactive

Compound,"activity change, negative = growth inhibition",Potency
COc1cccc(C(=O)NN2C(=S)N(c3ccccc3)C(=O)C2CC(N)=O)c1 (configuration not stated),–,inactive
CCOC(=O)C1CCN(S(=O)(=O)c2cc(-c3onc(C)c3C)ccc2OC)CC1,–,"inconclusive [inhibitor, single point]"
COc1ccc(NC(=O)CN(C)C(=O)Cc2ccsc2)cc1,–,inactive
CN(Cc1ccc(Br)cc1)CC(O)COc1cccc(Br)c1 (configuration not stated),–,"inconclusive [inhibitor, single point]"
COc1ccc(S(=O)(=O)NCC(=O)N(Cc2ccco2)C(C(=O)NC(C)(C)C)C(C)C)cc1 (configuration not stated),–,inactive
O=S(=O)(NCC(c1ccco1)S(=O)(=O)c1cccs1)c1ccc(F)c(C(F)(F)F)c1 (configuration not stated),–,"inconclusive [inhibitor, full curve, poor fit]"
Cc1cc(C(=O)CSc2nc3ccc(Cl)cc3[nH]2)c(C)n1C,–,"inconclusive [inhibitor, single point]"
COc1ccc(C(=O)C=Cc2ccc(OCc3ccccc3)c(OC)c2)cc1OC,–,active: 4.61 µM
Cc1ccc(CNC(=O)c2nc(SCc3ccc(C)cc3)ncc2Cl)cc1,–,"inconclusive [inhibitor, partial curve]"
CSc1ccc(NC(=O)Nc2cccn(Cc3ccccc3)c2=O)cc1,–,"inconclusive [inhibitor, partial curve]"
COCCn1cc(C(=O)c2cc(Br)ccc2O)cc(C#N)c1=O,–,"inconclusive [inhibitor, partial curve]"
Cc1cc(Sc2nc(N)ncc2[N+](=O)[O-])ncn1,–,active: 1.3 µM
Cc1ccc(C)c(N2CCN(CC3CCCCC3)CC2)c1,–,"inconclusive [inhibitor, single point]"
Brc1ccc(N=Nc2ccc3ccccc3n2)cc1,–,"inconclusive [inhibitor, partial curve]"
CC(=O)Nc1cc(-c2ccc(C(=O)N3CCOCC3)cc2)cn2c(-c3cccc(C(C)=O)c3)cnc12,–,active: 14.6 µM
Cc1ccccc1-c1csc(C(O)(c2ccccc2)C(F)(F)F)n1 (configuration not stated),–,"inconclusive [inhibitor, single point]"
CC[n+]1c(/C=C/c2cc([N+](=O)[O-])ccc2O)ccc2ccccc21,–,active: 23.1 µM
CSc1ccccc1-c1nnc(-c2ccc(Cl)c(Cl)c2)o1,–,"inconclusive [inhibitor, partial curve]"
N#CCCN1CCN(CCC#N)CC1,–,inactive
COc1ccccc1C(=O)N/C(=C\c1cn(S(=O)(=O)N(C)C)c2ccccc12)C(=O)N1CCOCC1,–,"inconclusive [inhibitor, single point]"
O=C(COc1cc(Cl)c(Cl)cc1Cl)Nc1ccc([N+](=O)[O-])cc1Cl,–,"inconclusive [inhibitor, full curve, poor fit]"
Cc1cc(C(=O)NP(=O)(N2CCOCC2)N2CCOCC2)c(C)n1-c1ccc(Br)cc1,–,inactive
CN(C(=O)c1ccc2c(=O)n3c(nc2c1)CCCCC3)c1cccc(Cl)c1,–,active: 23.1 µM
